Data from PubChem BioAssay AID1508624 (National Center for Advancing Translational Sciences (NCATS), 2021).
Screen size: about 48,000 compounds; about 120 (0.25%) were called active. About 4% were inconclusive and are not listed. Calls come from the whole dose curve; as a rule, active = well fitted activation curve with a large enough effect; inconclusive = small, poorly fitted or top-dose-only effect, or another doubt; inactive = no such curve, though single readings can be large or run the other way. The list shows a part of the results.

Test: Primary qHTS for Identification of Small Molecule Activators of Huntingtin-Antisense Promoter Activity; note: nearly all actives have a fitted effect of over 55% in size
Settings: HEK293 HTT-AS promoter firefly luciferase reporter (activity 0% = vehicle and -100% = no light), 24 h; series mostly up to 57.5 µM; activity change, positive = activation: at the top concentration
Procedure, shortened: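 HEK293 Fluc reporter, 2,500 cells/well, 24 h pre-culture; cpds up to 57.5 uM final, 24 h 37 degrees C; Dual-Glo, 10 min RT; normalized vehicle = 0%, zero RLU = -100%.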

Activity change, positive = activation, inactive:
COc1ccc(NC(=O)N2CCC(n3c(C)nc4cccnc43)CC2)cc1OC 0.946%
Fc1ccc(NCc2nc3ccccc3n2CCOc2ccccc2Cl)cc1 -1.95%
CC1CCc2c(sc3nnn(CC(=O)Nc4ccccc4Cl)c(=O)c23)C1 (centres undefined) -14.8%
CCCCNC(=O)c1ccc(-c2nc(CN3CCc4ccccc43)c(C)o2)cc1 -33%
COc1ccc(OC)c(S(=O)(=O)NCCc2sc(C)nc2C)c1 -10.5%
Cc1c(Cl)cccc1NC(=O)CCS(=O)(=O)c1cccc2nsnc12 -14.5%
Cc1cccc(COc2ccc(-c3cc(C(F)(F)F)n4nc(C)cc4n3)cc2)c1 -3.52%
Cc1ccc(Nc2c3c(nc4ccccc24)CCC3)cc1F -50.7%
Cc1ccc(CNC(=O)CCN2C(=O)C(C)Oc3ccc(C)cc32)cc1 (centres undefined) -25.7%
CCc1ccc(-c2nc3cc(NC(=O)c4ccc(F)cc4)ccc3o2)cc1 -5.53%
COc1ccccc1N(CC(=O)NCCSc1ccccc1)S(=O)(=O)c1ccc(C)cc1 -35.3%
Cc1ccc(NC(=O)CCNS(=O)(=O)c2cccs2)cc1F 18.5%
COc1cccc(-c2nn(C)c3sc(C(=O)N4CCN(c5cccc(C(F)(F)F)c5)CC4)cc23)c1 -17.9%
Cc1cn2c(=O)cc(COC(=O)COc3ccc(F)cc3)nc2s1 -0.912%
CCOc1cc(C(=O)N2CC(=O)Nc3ccc(F)cc3C2c2ccccc2)cc(OCC)c1OCC (centres undefined) 12.5%
CC(C)OCCCNC(=O)Cn1c(-c2cccs2)cc2cc(F)ccc21 -31.7%
COc1ccc(N2CCN(CCCNC(=O)c3sc4ncccc4c3-n3cccc3)CC2)cc1 -17.2%
COc1cc2nc(NCCc3ccc(Cl)cc3)n3nc(-c4ccccc4)nc3c2cc1OC -12.5%
COc1ccc(NC(=O)Cn2nc(C)c3c(C)n(-c4ccccc4)nc3c2=O)cc1OC 5.02%
CCN(C(=O)c1nn(C)c2c1CSc1ccccc1-2)c1cccc(C)c1 -6.44%
CCCCCCCCCCCCCCCC(=O)OC(C)C -1.32%
COc1cc(C(=O)OCc2cc(=O)n3ccsc3n2)cc(OC)c1OC -14.2%
CCOc1cc(-c2cc(C(=O)O)c3c(-c4ccccc4)[nH]nc3n2)ccc1O 12%
COc1ccc(S(=O)(=O)NCC(c2ccco2)S(=O)(=O)c2cccs2)cc1OC (centres undefined) 5.72%
CCCn1cc(S(=O)(=O)c2ccc(OCC)cc2)c(=O)c2cc(C)ccc21 0%
CN(CC(=O)N(Cc1ccc(C2CCCCC2)cc1)c1ccc(C(=O)O)c(O)c1)S(=O)(=O)c1c(F)c(F)c(F)c(F)c1F 19.9%
CCCCC(=O)Nc1cc(-c2cn3cccnc3n2)ccc1C -9.62%
CCOc1ccc(-c2c(C)nn3c(C)c(C(=O)NC(C)c4ccccc4)cnc23)cc1OCC (centres undefined) -23.9%
O=C(CCSCc1ccccc1Cl)NCCc1ccccc1 -3.61%
Cc1c(-c2cccc(NC(=O)Cc3ccccc3)c2)nc2ncccn12 1.73%
O=C(Cn1ccn(-c2ccc(F)c(F)c2)c(=O)c1=O)NCc1ccccc1 -2.32%
Cc1cc(C)c(NC(=O)c2cc(S(=O)(=O)N3CCCC3)cn2C)c(C)c1 -4.48%
Cc1ccc(OCCSc2nc3ccccc3n2CC(=O)N2CCOCC2)cc1C -16.4%
COc1cc(Cl)c(S(=O)(=O)N2CCN(c3c(C)cccc3C)CC2)cc1Cl -24.2%
COc1ccc(CNc2nc(-c3ccccc3)nn2C(=O)c2ccccc2OC)cc1 1.59%
CCOC(=O)c1cc2c(=O)n3ccccc3nc2n(CC2CCCO2)c1=NC(=O)c1ccc(OCC)cc1 (centres undefined) -11.7%
CN(Cc1ccccc1)C(=O)c1c[nH]c2ccc(S(=O)(=O)Nc3ccccc3F)cc2c1=O -26.2%
Cc1cc(Sc2ccc(Cl)cc2)nc2ccccc12 23.8%
O=C(CSc1ccccc1)NCc1ccc2c(c1)CCN2C(=O)c1ccc(Cl)cc1 -11.6%
CC(C)(C)OC(=O)N1CCC(c2c(C(=O)NC3CCCCC3)cnn2-c2cccc(F)c2)CC1 12.2%
Cc1cccc(C(=O)Nc2cccc(C(=O)OCc3cc(=O)n4nc(C(C)C)sc4n3)c2)c1 11.6%
Cn1nnnc1SCCNCc1ccc(OCc2ccccc2Cl)cc1 -18.2%
CC(NC(=O)c1ccc(NC(=O)c2nsc3ccccc23)cc1)c1ccccc1 (centres undefined) -53.9%
O=C(COc1ccccc1)NCc1ccc2c(c1)CCN2C(=O)c1ccccc1 -28.5%
Cc1ccc(C)c(Nc2nc(-c3ccccc3)c3cc(Br)ccc3n2)c1 -8.45%
COc1ccc(CCNC(=O)CCCCn2c(=O)c3ccccc3n(CC(=O)Nc3ccc(C)cc3C)c2=O)cc1OC -4.11%
O=C(COc1ccccc1)NCCc1csc(-c2cccc(F)c2)n1 -5.28%
CCN1C(=O)C(Cc2nc3ccccc3c(=O)n2-c2ccc(OC)cc2)c2cc(C)ccc21 (centres undefined) -25.5%
N#Cc1cccc(NC(=O)Cn2nc(Cc3ccncc3)c3ccccc3c2=O)c1 -26.4%
